# According to the supplement of paper PMC8728848:
# The other results are listed elsewhere or left out.
# Legend:
# Experiment in all cases: glycan array binding signal (z-score within array); higher = stronger binding
# Details in all cases: glycan notation: IUPAC condensed, linker removed
# [1] = target: Neu5Ac(a2-3)Gal(b1-4)[Fuc(a1-3)]GlcNAc6S
# Method in brief: (§1)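 Glycan array data came from 3228 arrays in the Consortium for Functional Glycomics database, and only arrays with an available protein sequence were kept. Glycan names were put into IUPAC-condensed notation, and columns mapping to the same glycan were averaged. The binding signal is a within-array Z-score, averaged across arrays of one protein sequence run at different concentrations or buffers and across linkers. A negative Z-score can be read as non-binding.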
# [2] = target: Neu5Ac(a2-3)Gal6S(b1-4)GlcNAc
# Method in brief: as §1
# [3] = target: Neu5Ac(a2-3)Gal6S(b1-4)[Fuc(a1-3)]GlcNAc
# Method in brief: as §1
# Neu5Ac(a2-3)GalNAc = target: Neu5Ac(a2-3)GalNAc
# Method in brief: as §1
# [4] = target: Neu5Ac(a2-3)GalNAc(b1-4)GlcNAc
# Method in brief: as §1
# [5] = target: Neu5Ac(a2-3)[GalNAc(b1-4)]Gal(b1-4)Glc
# Method in brief: as §1
# [6] = target: Neu5Ac(a2-3)[GalNAc(b1-4)]Gal(b1-4)GlcNAc
# Method in brief: as §1
# [7] = target: Neu5Ac(a2-3)[GalNAc(b1-4)]Gal(b1-4)GlcNAc(b1-3)GalNAc
# Method in brief: as §1
# [8] = target: Neu5Ac(a2-3)[Neu5Ac(a2-6)]GalNAc
# Method in brief: as §1
# Neu5Ac(a2-6)Gal = target: Neu5Ac(a2-6)Gal
# Method in brief: as §1
# [9] = target: Neu5Ac(a2-6)Gal(b1-3)GlcNAc(b1-3)[Gal(b1-4)GlcNAc(b1-6)]Gal(b1-4)Glc
# Method in brief: as §1
# Neu5Ac(a2-6)Gal(b1-4)Glc = target: Neu5Ac(a2-6)Gal(b1-4)Glc
# Method in brief: as §1
# [10] = target: Neu5Ac(a2-6)Gal(b1-4)GlcNAc
# Method in brief: as §1
# [11] = target: Neu5Ac(a2-6)Gal(b1-4)GlcNAc(b1-2)Man
# Method in brief: as §1
# [12] = target: Neu5Ac(a2-6)Gal(b1-4)GlcNAc(b1-2)Man(a1-3)Man(b1-4)GlcNAc(b1-4)GlcNAc
# Method in brief: as §1
# [13] = target: Neu5Ac(a2-6)Gal(b1-4)GlcNAc(b1-2)Man(a1-3)[Gal(b1-4)GlcNAc(b1-2)Man(a1-6)]Man(b1-4)GlcNAc(b1-4)GlcNAc
# Method in brief: as §1
# [14] = target: Neu5Ac(a2-6)Gal(b1-4)GlcNAc(b1-2)Man(a1-3)[GlcNAc(b1-2)Man(a1-6)]Man(b1-4)GlcNAc(b1-4)GlcNAc
# Method in brief: as §1
# [15] = target: Neu5Ac(a2-6)Gal(b1-4)GlcNAc(b1-2)Man(a1-3)[GlcNAc(b1-4)][Neu5Ac(a2-6)Gal(b1-4)GlcNAc(b1-2)Man(a1-6)]Man(b1-4)GlcNAc(b1-4)GlcNAc
# Method in brief: as §1
# [16] = target: Neu5Ac(a2-6)Gal(b1-4)GlcNAc(b1-2)Man(a1-3)[Man(a1-6)]Man(b1-4)GlcNAc(b1-4)GlcNAc
# Method in brief: as §1
# [17] = target: Neu5Ac(a2-6)Gal(b1-4)GlcNAc(b1-2)Man(a1-3)[Neu5Ac(a2-3)Gal(b1-4)GlcNAc(b1-2)Man(a1-6)]Man(b1-4)GlcNAc(b1-4)GlcNAc
# Method in brief: as §1
# [18] = target: Neu5Ac(a2-6)Gal(b1-4)GlcNAc(b1-2)Man(a1-3)[Neu5Ac(a2-6)Gal(b1-4)GlcNAc(b1-2)Man(a1-6)]Man(b1-4)GlcNAc(b1-4)GlcNAc
# Method in brief: as §1
# [19] = target: Neu5Ac(a2-6)Gal(b1-4)GlcNAc(b1-2)Man(a1-3)[Neu5Ac(a2-6)Gal(b1-4)GlcNAc(b1-2)Man(a1-6)]Man(b1-4)GlcNAc(b1-4)[Fuc(a1-6)]GlcNAc
# Method in brief: as §1
# [20] = target: Neu5Ac(a2-6)Gal(b1-4)GlcNAc(b1-2)Man(a1-6)Man(b1-4)GlcNAc(b1-4)GlcNAc
# Method in brief: as §1
# [21] = target: Neu5Ac(a2-6)Gal(b1-4)GlcNAc(b1-2)Man(a1-6)[Gal(b1-4)GlcNAc(b1-2)Man(a1-3)]Man(b1-4)GlcNAc(b1-4)GlcNAc
# Method in brief: as §1
# [22] = target: Neu5Ac(a2-6)Gal(b1-4)GlcNAc(b1-2)Man(a1-6)[GlcNAc(b1-2)Man(a1-3)]Man(b1-4)GlcNAc(b1-4)GlcNAc
# Method in brief: as §1
# [23] = target: Neu5Ac(a2-6)Gal(b1-4)GlcNAc(b1-2)Man(a1-6)[Man(a1-3)]Man(b1-4)GlcNAc(b1-4)GlcNAc
# Method in brief: as §1
# [24] = target: Neu5Ac(a2-6)Gal(b1-4)GlcNAc(b1-2)[Neu5Ac(a2-6)Gal(b1-4)GlcNAc(b1-4)]Man(a1-3)[GlcNAc(b1-4)][Neu5Ac(a2-6)Gal(b1-4)GlcNAc(b1-2)[Neu5Ac(a2-6)Gal(b1-4)GlcNAc(b1-6)]Man(a1-6)]Man(b1-4)GlcNAc(b1-4)GlcNAc
# Method in brief: as §1
# [25] = target: Neu5Ac(a2-6)Gal(b1-4)GlcNAc(b1-2)[Neu5Ac(a2-6)Gal(b1-4)GlcNAc(b1-4)]Man(a1-3)[GlcNAc(b1-4)][Neu5Ac(a2-6)Gal(b1-4)GlcNAc(b1-4)Man(a1-6)]Man(b1-4)GlcNAc(b1-4)GlcNAc
# Method in brief: as §1
# [26] = target: Neu5Ac(a2-6)Gal(b1-4)GlcNAc(b1-2)[Neu5Ac(a2-6)Gal(b1-4)GlcNAc(b1-6)]Man(a1-6)[Neu5Ac(a2-6)Gal(b1-4)GlcNAc(b1-2)Man(a1-3)][GlcNAc(b1-4)]Man(b1-4)GlcNAc(b1-4)GlcNAc
# Method in brief: as §1
# [27] = target: Neu5Ac(a2-6)Gal(b1-4)GlcNAc(b1-3)Gal(b1-3)GlcNAc
# Method in brief: as §1
# [28] = target: Neu5Ac(a2-6)Gal(b1-4)GlcNAc(b1-3)Gal(b1-4)GlcNAc
# Method in brief: as §1
# [29] = target: Neu5Ac(a2-6)Gal(b1-4)GlcNAc(b1-3)Gal(b1-4)GlcNAc(b1-2)Man(a1-3)[Neu5Ac(a2-6)Gal(b1-4)GlcNAc(b1-3)Gal(b1-4)GlcNAc(b1-2)Man(a1-6)]GalNAc
# Method in brief: as §1
# [30] = target: Neu5Ac(a2-6)Gal(b1-4)GlcNAc(b1-3)Gal(b1-4)GlcNAc(b1-3)Gal(b1-4)GlcNAc
# Method in brief: as §1
# [31] = target: Neu5Ac(a2-6)Gal(b1-4)GlcNAc(b1-3)Gal(b1-4)GlcNAc(b1-3)Gal(b1-4)GlcNAc(b1-2)Man(a1-3)[Neu5Ac(a2-6)Gal(b1-4)GlcNAc(b1-3)Gal(b1-4)GlcNAc(b1-3)Gal(b1-4)GlcNAc(b1-2)Man(a1-6)]GalNAc
# Method in brief: as §1
# [32] = target: Neu5Ac(a2-6)Gal(b1-4)GlcNAc(b1-3)Gal(b1-4)GlcNAc(b1-3)GalNAc
# Method in brief: as §1
# [33] = target: Neu5Ac(a2-6)Gal(b1-4)GlcNAc(b1-3)Gal(b1-4)GlcNAc(b1-3)[Neu5Ac(a2-6)Gal(b1-4)GlcNAc(b1-3)Gal(b1-4)GlcNAc(b1-6)]GalNAc
# Method in brief: as §1
# [34] = target: Neu5Ac(a2-6)Gal(b1-4)GlcNAc(b1-3)Gal(b1-4)GlcNAc(b1-6)[Gal(b1-3)]GalNAc
# Method in brief: as §1
# [35] = target: Neu5Ac(a2-6)Gal(b1-4)GlcNAc(b1-3)Gal(b1-4)[Fuc(a1-3)]GlcNAc(b1-3)Gal(b1-4)[Fuc(a1-3)]GlcNAc
# Method in brief: as §1
# [36] = target: Neu5Ac(a2-6)Gal(b1-4)GlcNAc(b1-3)GalNAc
# Method in brief: as §1
# [37] = target: Neu5Ac(a2-6)Gal(b1-4)GlcNAc(b1-3)[Neu5Ac(a2-6)Gal(b1-4)GlcNAc(b1-6)]GalNAc
# Method in brief: as §1
# [38] = target: Neu5Ac(a2-6)Gal(b1-4)GlcNAc(b1-6)GalNAc
# Method in brief: as §1
# [39] = target: Neu5Ac(a2-6)Gal(b1-4)GlcNAc(b1-6)[Gal(b1-3)GlcNAc(b1-3)]Gal(b1-4)Glc
# Method in brief: as §1
# [40] = target: Neu5Ac(a2-6)Gal(b1-4)GlcNAc(b1-6)[Gal(b1-3)]GalNAc
# Method in brief: as §1
# [41] = target: Neu5Ac(a2-6)Gal(b1-4)GlcNAc6S
# Method in brief: as §1
# Neu5Ac(a2-6)GalNAc = target: Neu5Ac(a2-6)GalNAc
# Method in brief: as §1
binder,measurement,setting,value
"SSR1 (Sclerotium rolfsii), A0A0M3KL30 (protein) TYKITVRVYQTNPDAFFHPVEKTVWKYANGGTWTITDDQHVLTMGGSGTSGTLRFHADNGESFTATFGVHNYKRWCDIVTNLAADETGMVINQQYYSQKNREEARERQLSNYQVKNAKGRNFQIVYTEAEGNDLHANLIIG",glycan array binding signal (z-score),[1],-0.338
same,glycan array binding signal (z-score),[2],-0.343
same,glycan array binding signal (z-score),[3],-0.349
same,glycan array binding signal (z-score),Neu5Ac(a2-3)GalNAc,1.68
same,glycan array binding signal (z-score),[4],-0.344
same,glycan array binding signal (z-score),[5],-0.354
same,glycan array binding signal (z-score),[6],-0.387
same,glycan array binding signal (z-score),[7],-0.271
same,glycan array binding signal (z-score),[8],-0.32
same,glycan array binding signal (z-score),Neu5Ac(a2-6)Gal,-0.339
same,glycan array binding signal (z-score),[9],-0.336
same,glycan array binding signal (z-score),Neu5Ac(a2-6)Gal(b1-4)Glc,-0.338
same,glycan array binding signal (z-score),[10],-0.339
same,glycan array binding signal (z-score),[11],-0.339
same,glycan array binding signal (z-score),[12],-0.341
same,glycan array binding signal (z-score),[13],-0.331
same,glycan array binding signal (z-score),[14],1.11
same,glycan array binding signal (z-score),[15],-0.331
same,glycan array binding signal (z-score),[16],-0.341
same,glycan array binding signal (z-score),[17],-0.339
same,glycan array binding signal (z-score),[18],-0.379
same,glycan array binding signal (z-score),[19],-0.331
same,glycan array binding signal (z-score),[20],-0.343
same,glycan array binding signal (z-score),[21],-0.346
same,glycan array binding signal (z-score),[22],2.13
same,glycan array binding signal (z-score),[23],-0.33
same,glycan array binding signal (z-score),[24],-0.327
same,glycan array binding signal (z-score),[25],-0.326
same,glycan array binding signal (z-score),[26],-0.323
same,glycan array binding signal (z-score),[27],-0.318
same,glycan array binding signal (z-score),[28],-0.349
same,glycan array binding signal (z-score),[29],-0.334
same,glycan array binding signal (z-score),[30],-0.321
same,glycan array binding signal (z-score),[31],-0.246
same,glycan array binding signal (z-score),[32],0.414
same,glycan array binding signal (z-score),[33],-0.281
same,glycan array binding signal (z-score),[34],0.789
same,glycan array binding signal (z-score),[35],-0.339
same,glycan array binding signal (z-score),[36],-0.07
same,glycan array binding signal (z-score),[37],-0.297
same,glycan array binding signal (z-score),[38],-0.327
same,glycan array binding signal (z-score),[39],-0.344
same,glycan array binding signal (z-score),[40],1.07
same,glycan array binding signal (z-score),[41],-0.342
same,glycan array binding signal (z-score),Neu5Ac(a2-6)GalNAc,-0.351
